The campaign covered roughly 350,000 compounds. About 260 (0.074%) were called active. Inconclusive results, whose numbers are uncertain, are shown with a selection of clear calls. Calls come from the whole dose curve; as a rule, active = well fitted inhibition curve with a large enough effect; inconclusive = small, poorly fitted or top-dose-only effect; inactive = no such curve, though single readings can be large or run the other way. Potencies beside an inconclusive call are fits to weak or partial responses and may not hold up.
The compounds below were run against Ferritin light chain (Equus caballus) (UniProt P02791) (assay: qHTS Assay for Identification of Novel General Anesthetics). Conditions: apoferritin/1-aminoanthracene competitive binding, fluorescence; activity change, negative = displacement: at 77.5 µM (top of the series).
Sequence of UniProt P02791 (P02791 whole entry, looked up): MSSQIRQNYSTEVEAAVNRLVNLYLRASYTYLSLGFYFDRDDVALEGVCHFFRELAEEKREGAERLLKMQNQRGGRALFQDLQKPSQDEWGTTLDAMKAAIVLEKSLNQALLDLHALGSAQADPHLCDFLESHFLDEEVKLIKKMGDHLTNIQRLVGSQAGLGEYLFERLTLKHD
Outline: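 Read-out: endpoint 1-AMA fluorescence, excitation 380 nm and emission 535 nm, after compounds sit 10 min at room temperature with 10 uM horse-spleen apoferritin in 50% saturated 1-AMA/PBS. Values come from four-parameter Hill fits.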
% is set by controls: 0 for no effect and ±100 for the full control effect; potency is the fitted concentration of half-maximal effect; tags give direction and shape of the fitted curve.
Note: nearly all actives have a fitted effect of over 20% in size.

Potency, inactive:
Cc1cccc(N2CCN(C(=O)CCS(=O)(=O)c3ccc4c(c3)oc(=O)n4C)CC2)c1C

Potency, inconclusive:
COc1ccc2c(c1)c(C(=O)N/N=C/c1ccc(Cl)cc1)c(C)n2C 25.1 µM [inhibitor, single point], Cc1cc2ncn(S(=O)(=O)N(C)C)c2cc1C 39.8 µM [inhibitor, single point], COc1cc(CNc2ccccc2SC)ccc1O 31.6 µM [inhibitor, partial curve], O=C(c1ccccc1F)N1CCc2ccccc21 31.6 µM [inhibitor, partial curve], Cc1ccc(NCC(=O)N/N=C/c2cccc(Br)c2)cc1 7.94 µM [inhibitor, partial curve], CCCCN(CC)c1nc(-c2ccncc2)nc2ccccc12 56.2 µM [inhibitor, partial curve], CC(C)(C)C(=O)Nc1ccccc1C(=O)Nc1cc(Cl)ccc1Cl 17.8 µM [inhibitor, partial curve], CCOC(=O)C1(CC2CCCCO2)CCN(C(=O)Nc2cccc(SC)c2)CC1 (stereo not drawn) 35.5 µM [inhibitor, single point], Cc1ccnc(NCc2ccc(Cl)cc2)c1 7.94 µM [inhibitor, full curve], O=C(CC12CC3CC(CC(C3)C1)C2)Nc1cccc2ncccc12 22.4 µM [inhibitor, partial curve], CC1CCCCC1NC(=S)NC(=O)c1cccs1 (stereo not drawn) 50.1 µM [inhibitor, single point], Cc1cc(C)n2nc(SCc3nnc(SCc4ccccc4)s3)nc2n1 31.6 µM [inhibitor, partial curve], Cc1ccc(S(=O)(=O)NCC(=O)OCC(=O)N2CCc3ccccc32)cc1 25.1 µM [inhibitor, partial curve], Cc1nc(N2CCCCC2)sc1C(=O)c1ccc(SCCO)c([N+](=O)[O-])c1 31.6 µM [inhibitor, single point], CCCCC(CC)CNC(=O)c1ccc(Cn2c(=O)[nH]c3cc(OC)c(OC)cc3c2=O)cc1 (stereo not drawn) 5.01 µM [inhibitor, full curve], COc1cc(C2C(C(=O)c3ccc(C)o3)=C(O)C(=O)N2CCN2CCOCC2)ccc1OCCC(C)C (stereo not drawn) 50.1 µM [inhibitor, single point], C/C(CC(=O)Nc1ccccc1[N+](=O)[O-])=N\NC(=O)COc1ccccc1C 50.1 µM [inhibitor, single point], Cc1ccc(O)c(NC(=O)C2=CC(c3cccs3)=NS(=O)(=O)N2C)c1 17.8 µM [inhibitor, partial curve], COc1cc(/C=N/NC(=O)/C(=C\c2ccc([N+](=O)[O-])cc2)NC(=O)c2ccccc2)cc(OC)c1O 31.6 µM [inhibitor, partial curve], CCCCC(=O)O[C@]1(C(=O)CO)[C@H](C)C[C@H]2[C@@H]3CCC4=CC(=O)C=C[C@]4(C)[C@@]3(F)[C@@H](O)C[C@@]21C 39.8 µM [inhibitor, partial curve], COc1ccc(-c2ccc(CCC(=O)O)n2-c2ccccc2C(F)(F)F)cc1 56.2 µM [inhibitor, single point], COc1ccc(Cc2nnc(NC(=O)CSc3ccccc3)s2)cc1OC 17.8 µM [inhibitor, partial curve], CC(C)CN(C(=O)COC(=O)c1cncc(Br)c1)c1c(N)n(Cc2ccccc2)c(=O)[nH]c1=O 28.2 µM [inhibitor, single point], NS(=O)(=O)c1ccc(NS(=O)(=O)c2ccc(NC(=O)c3ccc(-c4ccccc4)cc3)cc2)cc1 56.2 µM [inhibitor, single point], Cc1ccc(CNC(=O)CCC(=O)c2cccs2)cc1 56.2 µM [inhibitor, single point], COCCN(CCOC)C(=O)c1ccc(SCc2ccc(C)cc2)c([N+](=O)[O-])c1 35.5 µM [inhibitor, partial curve], O=S(=O)(c1ccc(NCCc2c[nH]c3ccccc23)nc1)N1CCOCC1 31.6 µM [inhibitor, single point], CCCSc1ncc(Cl)c(C(=O)Nc2ccc(S(=O)(=O)N3CCCCC3C)cc2)n1 (stereo not drawn) 35.5 µM [inhibitor, partial curve], Cc1cc(Nc2ccc(Cl)cc2C)nc(-n2nc(C)cc2C)n1 11.2 µM [inhibitor, partial curve], CC(C)(C)c1ccccc1NC(=O)CSc1nc(-c2cccs2)cc(C(F)(F)F)n1 6.31 µM [inhibitor, full curve], CC(C)(C)C(=O)NC(=S)Nc1ccccc1F 31.6 µM [inhibitor, partial curve], COc1cc(/C=C(\C#N)C(=O)Nc2ccc(SC(F)F)cc2)cc(OC)c1OC 28.2 µM [inhibitor, partial curve], O=C1C2C3C=CC(C4CC34)C2C(=O)N1/N=C/c1c[nH]c2ccccc12 (stereo not drawn) 39.8 µM [inhibitor, single point], O=C(CN1N=C(c2ccccc2)CCC1=O)NCc1ccccc1 11.2 µM [inhibitor, partial curve], c1ccc(Cc2nnc(N3CCCCC3)c3ccccc23)cc1 25.1 µM [inhibitor, single point], CCN(C(=O)c1cc2c(=O)n3cccc(C)c3nc2s1)c1ccc(C)c(C)c1 12.6 µM [inhibitor, partial curve], C1CCC(c2nn3c(-c4n[nH]c5c4CCC5)nnc3s2)CC1 35.5 µM [inhibitor, partial curve], CCc1ccccc1N(C)S(=O)(=O)c1ccc(-c2cc(C)no2)s1 28.2 µM [inhibitor, partial curve], Cc1ccccc1NC(=O)CCC(=O)N1CC(C)Sc2ccccc21 (stereo not drawn) 28.2 µM [inhibitor, partial curve], COc1ccc(CNc2nc(C)cc(C)c2C#N)cc1 35.5 µM [inhibitor, single point], O=C(O)c1ccccc1C(=O)Nc1ccc(-n2nccc2C(F)(F)F)cc1 31.6 µM [inhibitor, partial curve], Cc1ccc2c(c1)NC(C(C)(C)C)CO2 (stereo not drawn) 35.5 µM [inhibitor, partial curve], CCn1c(SCc2cccc(C)c2)nnc1-c1ccc(C)cc1 31.6 µM [inhibitor, partial curve], O=C(CCc1nc(-c2ccccc2F)no1)NC1CCCCCC1 44.7 µM [inhibitor, partial curve], Cc1cccc(N=Nc2c(N)n[nH]c2-c2ccc(Cl)cc2)c1 17.8 µM [inhibitor, partial curve], Cc1ccc(/C=N/NC(=O)c2cccs2)cc1[N+](=O)[O-] 22.4 µM [inhibitor, partial curve], CCOc1ccc(/C=N/NC(=O)Cc2csc(Nc3cccc(C(F)(F)F)c3)n2)cc1 3.55 µM [inhibitor, full curve], COc1ccc(-c2ccc(C(=S)N3CCN(C(C)=O)CC3)o2)cc1 25.1 µM [inhibitor, partial curve], Cc1cccc(CC(=O)NC2CCCCCC2)c1 22.4 µM [inhibitor, partial curve], O=C1c2cccc3cccc(c23)C(=O)N1CCCN1CCN(c2ccc(F)cc2)CC1 5.62 µM [inhibitor, full curve, poor fit], CC12CCC(C(=O)N(c3ccc(Cl)cc3)C1=O)C2(C)C (stereo not drawn) 28.2 µM [inhibitor, partial curve], Cc1cccc(N(CC(=O)NC2CCCCC2)C(=O)c2ccc(C)s2)c1 14.1 µM [inhibitor, partial curve], CCN(CC)S(=O)(=O)c1ccc(NC(=O)c2cc(=O)[nH]c3ccccc23)cc1 25.1 µM [inhibitor, partial curve], CCc1ccc(C(=O)CN(C#N)c2nc(C)cc(C)n2)cc1 28.2 µM [inhibitor, partial curve]

Activity change, negative = displacement, inactive:
CC(=O)N1CCN(c2c(F)c(F)c(C(F)(F)F)c(F)c2F)CC1 -18%, Cc1cc(C)n(-c2nc(NCC(C)O)c3c4c(sc3n2)COC(C)(C)C4)n1 (stereo not drawn) 2.66%, Cc1cccc(-c2nnc(SCCOc3ccc4c(C)cc(=O)oc4c3)o2)c1 -20.7%, O=c1c(O)cc(C2Oc3cc(O)cc(O)c3CC2O)cc2c(C3Oc4cc(O)cc(O)c4CC3O)cc(O)c(O)c12 (stereo not drawn) -14.6%, COc1ccc2nc(NC(=O)CSc3nnc(C)n3N)sc2c1 0.476%, Cc1ccc(NC(=O)[C@@H](C)NC(=O)[C@@H]2Cc3ccccc3CN2)cc1 -8.77%, Cc1ccc(C)c(N2CCN(CCCNC(=O)c3ccc4nc(N5CCCCC5)sc4c3)CC2)c1 -6.33%, O=S1(=O)CC(O)C(NCc2ccco2)C1 (stereo not drawn) -9.04%
